Reference: paper PMC5892938
The other results are listed elsewhere or left out. At the low end of the ranking the order means little.

Target: GST-SBP-SLBP (stem-loop binding protein) (UniProt Q14493)
Assay: targeted RNA Bind-n-Seq;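 also: DESeq read counts versus GST-SBP nonspecific binding control pulldown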
Conditions: RBNS binding buffer: 25 mM Tris pH 7.5, 150 mM KCl, 3 mM MgCl2, 0.1% Tween, 0.5 mg/mL BSA, 1 mM DTT; 27 nM protein, 750 pM RNA pool; temperature not stated; high values mean tight binding

Sequence | binding signal (log2 fold change)
GGUCACGUCUCAAUCAACUCUACUUCAGGAGUUUCCUCCUGUUUAUUCAACAGCUCGCAGUCAAG | 0.0676
GGUCACGUCUCAAUCAACUCAAUUUCAGGAGUUUACUCCUGCAUACUCAACAGCUCGCAGUCAAG | 0.0541
GGUCACGUCUCAAUCAACUCUUUUCCAGGAGUUUACUCCUGCAUUCUCAACAGCUCGCAGUCAAG | -0.00374
GGUCACGUCUCAAUCAACUCAAUCUCAGGAGUUUUCUCCUGCAAACUCAACAGCUCGCAGUCAAG | 0.225
GGUCACGUCUCAAUCAACUCAUUCUCAGGAGUUUCCUCCUGCUUAGUCAACAGCUCGCAGUCAAG | 0.151
GGUCACGUCUCAAUCAACUCAUUUCCCAGGGAAAACCCUGGUUUUUUCAACAGCUCGCAGUCAAG | -0.19
GGUCACGUCUCAAUCAACUCAUUCCCCAGGGAAAGCCCUGGUAAUCUCAACAGCUCGCAGUCAAG | 0.134
GGUCACGUCUCAAUCAACUCAUCCCCAGGAGUUUUCUCCUGCUUUUUCAACAGCUCGCAGUCAAG | 0.131
GGUCACGUCUCAAUCAACUCUAUUCCCAGGGAAAACCCUGGCAUACUCAACAGCUCGCAGUCAAG | 0.0666
GGUCACGUCUCAAUCAACUCUUUUUCCAGGGAAAUCCCUGGUAUAUUCAACAGCUCGCAGUCAAG | 0.0067
GGUCACGUCUCAAUCAACUCAUUCCCAGGAGUUUACUCCUGUAUUUUCAACAGCUCGCAGUCAAG | 0.0921
GGUCACGUCUCAAUCAACUCUAUUCCAGGAGUUUACUCCUGCAUACUCAACAGCUCGCAGUCAAG | -0.125
GGUCACGUCUCAAUCAACUCUAUCCCAGGAGUUUCCUCCUGUUUUCUCAACAGCUCGCAGUCAAG | 0.237
GGUCACGUCUCAAUCAACUCAUUCCCCAGGGAAAACCCUGGUAUACUCAACAGCUCGCAGUCAAG | 0.0884
GGUCACGUCUCAAUCAACUCCCUAGAGGGGGGGAAAACCCCUUUACCCUCGUAAUCAACAGCUCGCAGUCAAG | -0.29
GGUCACGUCUCAAUCAACUCUUUUCCCAGGGAAAUCCCUGGCUUUCUCAACAGCUCGCAGUCAAG | 0.0377
GGUCACGUCUCAAUCAACUCUUCCUCAGGAGUUUCCUCCUGUAAUCUCAACAGCUCGCAGUCAAG | 0.0782
GGUCACGUCUCAAUCAACUCAUCUCCCAGGGAAAGCCCUGGUUAACUCAACAGCUCGCAGUCAAG | -0.0832
GGUCACGUCUCAAUCAACUCUAUAGAGGGGGGGAAAACCCCUUUGCCCUCAACCUCAACAGCUCGCAGUCAAG | -0.0693
GGUCACGUCUCAAUCAACUCUUUAGAGGGGGGGAAAACCCCUUUGCCCUCCAUAUCAACAGCUCGCAGUCAAG | -0.12
GGUCACGUCUCAAUCAACUCCCAAGAGGGGGGGAAAACCCCUUUGCCCUCCAUGUCAACAGCUCGCAGUCAAG | -0.403
GGUCACGUCUCAAUCAACUCUAUCUCCAGGGAAAUCCCUGGUUUUUUCAACAGCUCGCAGUCAAG | 0.074
GGUCACGUCUCAAUCAACUCAGUUUCCAGGGAAAUCCCUGGUUUAUUCAACAGCUCGCAGUCAAG | 0.33
GGUCACGUCUCAAUCAACUCUUUCCCAGGAGUUUACUCCUGCAUUCUCAACAGCUCGCAGUCAAG | 0.206
GGUCACGUCUCAAUCAACUCAUAAGAGGGGGGGAAAACCCCUUUGCCCUCAUACUCAACAGCUCGCAGUCAAG | 0.0461

Sequence | binding signal (log2 fold change)
GGUCACGUCUCAAUCAACUCUUCUCCCAGGGAAAACCCUGGCAUUCUCAACAGCUCGCAGUCAAG | 0.171
GGUCACGUCUCAAUCAACUCUUCGGCAGGAGUUUUCUCCUGGAAUUUCAACAGCUCGCAGUCAAG | -0.021
GGUCACGUCUCAAUCAACUCUUAGGAGGGGGGGAAAACCCCUUUACCCUCAUUCUCAACAGCUCGCAGUCAAG | -0.223
GGUCACGUCUCAAUCAACUCAACUUCAGGAGUUUACUCCUGCUAAUUCAACAGCUCGCAGUCAAG | 0.294
GGUCACGUCUCAAUCAACUCAUUCCCAGGAGUUUUCUCCUGCAAUUUCAACAGCUCGCAGUCAAG | 0.209
GGUCACGUCUCAAUCAACUCAUCUUCAGGAGUUUUCUCCUGCUUAUUCAACAGCUCGCAGUCAAG | 0.0542
GGUCACGUCUCAAUCAACUCAAUCCCAGGAGUUUACUCCUGCAAACUCAACAGCUCGCAGUCAAG | 0.251
GGUCACGUCUCAAUCAACUCAUCGUCAGGAGUUUCCUCCUGCUUUCUCAACAGCUCGCAGUCAAG | 0.0538
GGUCACGUCUCAAUCAACUCAACUCCAGGAGUUUUCUCCUGCUAUCUCAACAGCUCGCAGUCAAG | 0.28
GGUCACGUCUCAAUCAACUCUUUUUCAGGAGUUUACUCCUGUUAUCUCAACAGCUCGCAGUCAAG | 0.073
GGUCACGUCUCAAUCAACUCAUCGCCAGGAGUUUCCUCCUGCUAAUUCAACAGCUCGCAGUCAAG | -0.122
GGUCACGUCUCAAUCAACUCAUUCCCCAGGGAAAACCCUGGCUUACUCAACAGCUCGCAGUCAAG | 0.0164
GGUCACGUCUCAAUCAACUCUAUUUCCAGGGAAAGCCCUGGCGUAUUCAACAGCUCGCAGUCAAG | -0.253
GGUCACGUCUCAAUCAACUCUCUCGAGGGGGGGAAAACCCCUUUGCCCUCAUCAUCAACAGCUCGCAGUCAAG | -0.145
GGUCACGUCUCAAUCAACUCAUCGUCAGGAGUUUUCUCCUGCAAAUUCAACAGCUCGCAGUCAAG | -0.0376
GGUCACGUCUCAAUCAACUCUAGUCCCAGGGAAAGCCCUGGCUUUUUCAACAGCUCGCAGUCAAG | 0.0629
GGUCACGUCUCAAUCAACUCAUCUCCCAGGGAAAGCCCUGGCAUACUCAACAGCUCGCAGUCAAG | 0.113
GGUCACGUCUCAAUCAACUCAUGUCCAGGAGUUUCCUCCUGUAUUUUCAACAGCUCGCAGUCAAG | -0.254
GGUCACGUCUCAAUCAACUCUAACGAGGGGGGGAAAACCCCUUUACCCUCAACAUCAACAGCUCGCAGUCAAG | 0.268
GGUCACGUCUCAAUCAACUCAACUUCCAGGGAAACCCCUGGUAUUUUCAACAGCUCGCAGUCAAG | 0.183
GGUCACGUCUCAAUCAACUCCACAGAGGGGGGGAAAACCCCUUUACCCUCACUCUCAACAGCUCGCAGUCAAG | -0.0607
GGUCACGUCUCAAUCAACUCCUAAGAGGGGGGGAAAACCCCUUUGCCCUCACUUUCAACAGCUCGCAGUCAAG | 0.38
GGUCACGUCUCAAUCAACUCAUCUUCAGGAGUUUUCUCCUGCAUUUUCAACAGCUCGCAGUCAAG | 0.00132
GGUCACGUCUCAAUCAACUCCUUCGAGGGGGGGAAAACCCCUUUACCCUCAUCCUCAACAGCUCGCAGUCAAG | 0.0926
GGUCACGUCUCAAUCAACUCAUCGCCCAGGGAAAGCCCUGGUUUUUUCAACAGCUCGCAGUCAAG | -0.372

Sequence | binding signal (log2 fold change)
GGUCACGUCUCAAUCAACUCAACUCCAGGAGUUUGCUCCUGCUAUUUCAACAGCUCGCAGUCAAG | 0.0139
GGUCACGUCUCAAUCAACUCAACUCCAGGAGUUUUCUCCUGCAAACUCAACAGCUCGCAGUCAAG | -0.0582
GGUCACGUCUCAAUCAACUCAUUCUCCAGGGAAAUCCCUGGCUUAGUCAACAGCUCGCAGUCAAG | -0.0531
GGUCACGUCUCAAUCAACUCAACUCCCAGGGAAAACCCUGGUAAACUCAACAGCUCGCAGUCAAG | -0.154
GGUCACGUCUCAAUCAACUCUUUUUCAGGAGUUUGCUCCUGCAUAUUCAACAGCUCGCAGUCAAG | -0.114
GGUCACGUCUCAAUCAACUCUUUCUCCAGGGAAACCCCUGGUUAUGUCAACAGCUCGCAGUCAAG | 0.226
GGUCACGUCUCAAUCAACUCAUUCUCAGGAGUUUUCUCCUGCUAACUCAACAGCUCGCAGUCAAG | 0.0174
GGUCACGUCUCAAUCAACUCAUCUUCCAGGGAAACCCCUGGUAUACUCAACAGCUCGCAGUCAAG | 0.22
GGUCACGUCUCAAUCAACUCAAUAGAGGGGGGGAAAACCCCUUUGCCCUCCAAAUCAACAGCUCGCAGUCAAG | 0.191
GGUCACGUCUCAAUCAACUCCCACGAGGGGGGGAAAACCCCUUUACCCUCAAUUUCAACAGCUCGCAGUCAAG | 0.12
GGUCACGUCUCAAUCAACUCCUCCGAGGGGGGGAAAACCCCUUUACCCUCAUAUUCAACAGCUCGCAGUCAAG | -0.324
GGUCACGUCUCAAUCAACUCUUUCUCAGGAGUUUCCUCCUGCUAACUCAACAGCUCGCAGUCAAG | 0.147
GGUCACGUCUCAAUCAACUCUUCUUCCAGGGAAAACCCUGGUUAUUUCAACAGCUCGCAGUCAAG | -0.18
GGUCACGUCUCAAUCAACUCAUCUCCCAGGGAAACCCCUGGUAUUUUCAACAGCUCGCAGUCAAG | 0.247
GGUCACGUCUCAAUCAACUCAUUCCCAGGAGUUUGCUCCUGCUUAUUCAACAGCUCGCAGUCAAG | -0.0249
GGUCACGUCUCAAUCAACUCAAUUUCCAGGGAAACCCCUGGCUAUUUCAACAGCUCGCAGUCAAG | -0.0455
GGUCACGUCUCAAUCAACUCUUUUUCAGGAGUUUCCUCCUGUUUAUUCAACAGCUCGCAGUCAAG | -0.0666
GGUCACGUCUCAAUCAACUCACUAGAGGGGGGGAAAACCCCUUUGCCCUCGUAUUCAACAGCUCGCAGUCAAG | -0.254
GGUCACGUCUCAAUCAACUCAAUCUCAGGAGUUUACUCCUGCUAACUCAACAGCUCGCAGUCAAG | 0.00855
GGUCACGUCUCAAUCAACUCUUUUCCAGGAGUUUCCUCCUGCUUAUUCAACAGCUCGCAGUCAAG | 0.0117
GGUCACGUCUCAAUCAACUCUUCCUCCAGGGAAAACCCUGGUUAUGUCAACAGCUCGCAGUCAAG | -0.163
GGUCACGUCUCAAUCAACUCAAUUUCAGGAGUUUCCUCCUGUAUAGUCAACAGCUCGCAGUCAAG | 0.0622
GGUCACGUCUCAAUCAACUCAUUUCCAGGAGUUUACUCCUGUAUAUUCAACAGCUCGCAGUCAAG | 0.24
GGUCACGUCUCAAUCAACUCAGUCCCAGGAGUUUACUCCUGCAAUCUCAACAGCUCGCAGUCAAG | -0.0524
